Results from PubChem BioAssay AID1645882 (National Center for Advancing Translational Sciences (NCATS), 2021).
About 120 (0.75%) of roughly 16,000 compounds were called active. Another 4% or so got no clear call; they are omitted. Calls come from the whole dose curve; as a rule, active = well fitted inhibition curve with a large enough effect; inconclusive = small, poorly fitted or top-dose-only effect; inactive = no such curve, though single readings can be large or run the other way. The list shows a part of the results. Where a SMILES comes first, the peptide text is derived from it.

These compounds were tested against Rap guanine nucleotide exchange factor 3 (Homo sapiens) (UniProt O95398) (assay: Validation qHTS for antagonist of cAMP-regulated guanine nucleotide exchange factor 3 (EPAC1)). Settings: EPAC1 Rap1B-BODIPY-GDP exchange, fluorescence; series mostly up to 150 µM; activity change, negative = inhibition: at the top concentration.
How it was run: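 Nucleotide exchange followed as fluorescence loss when BODIPY-GDP leaves Rap1B (480 nm excitation, 540 nm emission), read at 5 min intervals over 30 min. Reaction: 100 nM EPAC1, 250 nM RAP1B-BODIPY-GDP, 50 uM GDP; ATA and DMSO define normalization.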
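Note: plate controls were DMSO for no effect and ATA control for full effect; nearly all actives have a fitted effect of over 75% in size.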

Sequence of UniProt O95398 (O95398 whole entry, looked up): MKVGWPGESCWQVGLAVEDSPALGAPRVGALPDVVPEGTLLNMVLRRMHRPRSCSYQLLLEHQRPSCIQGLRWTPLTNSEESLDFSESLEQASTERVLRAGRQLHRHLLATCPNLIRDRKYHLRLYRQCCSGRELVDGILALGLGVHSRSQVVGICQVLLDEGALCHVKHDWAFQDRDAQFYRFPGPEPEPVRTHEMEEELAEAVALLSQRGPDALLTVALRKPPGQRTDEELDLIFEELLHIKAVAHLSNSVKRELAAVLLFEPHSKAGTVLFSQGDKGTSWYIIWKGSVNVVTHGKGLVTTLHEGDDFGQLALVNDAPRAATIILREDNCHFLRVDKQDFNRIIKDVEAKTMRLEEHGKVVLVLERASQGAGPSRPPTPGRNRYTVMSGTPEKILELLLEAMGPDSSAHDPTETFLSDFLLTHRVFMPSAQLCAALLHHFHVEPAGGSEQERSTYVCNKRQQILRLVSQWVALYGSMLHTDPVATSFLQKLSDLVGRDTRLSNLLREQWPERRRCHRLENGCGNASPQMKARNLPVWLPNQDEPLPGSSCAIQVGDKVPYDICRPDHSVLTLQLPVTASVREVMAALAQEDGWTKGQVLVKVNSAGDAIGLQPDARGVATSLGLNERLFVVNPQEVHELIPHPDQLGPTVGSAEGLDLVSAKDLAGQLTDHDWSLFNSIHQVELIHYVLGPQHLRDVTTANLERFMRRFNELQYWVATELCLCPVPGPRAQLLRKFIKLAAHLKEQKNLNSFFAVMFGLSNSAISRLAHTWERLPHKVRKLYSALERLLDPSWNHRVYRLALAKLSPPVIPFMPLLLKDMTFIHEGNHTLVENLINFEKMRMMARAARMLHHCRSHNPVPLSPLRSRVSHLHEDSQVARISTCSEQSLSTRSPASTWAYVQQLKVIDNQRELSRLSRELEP

Activity change, negative = inhibition, inactive:
CCCCOc1cc(C(=O)OCCN(CC)CC)ccc1N 12.7% [at 75.8 µM]
CN(C)c1ncc2nc(-c3ccc(Cl)cc3)c(=O)n(CCC#N)c2n1 19.8%
COc1ccc(C(=O)N2CCC3(CCCN(C(c4ccccc4)c4ccccc4)C3)CC2)cc1 -3.03%
Cc1nc2n(c(=O)c1CCN1CCC(c3noc4cc(F)ccc34)CC1)CCC[C@H]2O 33.4%
CN1CCCCC1C(=O)N1CCC(Oc2cccc(CN3CCN(c4ccccn4)CC3)c2)CC1 (configuration not stated) 9.83%
CCCCC[C@H](O)/C=C/[C@H]1C(=O)C=C[C@@H]1C/C=C\CCCC(=O)O 36% [at 15.3 µM]
CN(C)C(=O)c1ccc(-c2ccc3ncnc(NCc4cccs4)c3c2)cc1 -18.6%
Nc1c[n+](N2CCOCC2)no1 18.8%
CNc1nc(-c2cccc(C#N)c2)nc2ccccc12 4.64%
CC(C)(C)c1cc(O)c(C(C)(C)C)cc1O
C=Cc1ccc(S(=O)(=O)O)cc1 15.8%
CCC1CN(CC(=O)NC(C)c2cn(C)nc2C)Cc2cc(OC)ccc2O1 (configuration not stated) 13.8%
CC(C)NC(=O)N1CCC2(CC1)CCN(C(=O)c1cccc(F)c1)CC2 2.54%
COc1cc(O)c2c(=O)cc(C)oc2c1CC=C(C)C -19.2%
COC(=O)N1CCC2(CCCN(c3ncccn3)C2)CC1 9.34%
O=C1CC[C@H](N2C(=O)c3ccccc3C2=O)C(=O)N1 2.71%
OC/C=C/c1ccccc1 4.11%
CCOC(=O)C1=C(N)Oc2ccc(Br)cc2C1C(C#N)C(=O)OCC (configuration not stated) 12.9% [at 201 µM]
COc1ccc2c(c1)-c1nc(-n3ncc(C(=O)N(C)CC4CCCN(C)C4)c3C3CC3)ncc1CC2 (configuration not stated) 16.2%
CCOC(=O)N1CCN(C(=O)c2ccc(-c3ccccc3OC)nc2N2CCC(N3CCCC(CO)C3)CC2)CC1 (configuration not stated) 17.4%
C1CCC(N=C(NC23CC4CC(CC(C4)C2)C3)N2CCOCC2)CC1 16.4% [at 75.8 µM]
NC1CCN(O)C1=O (configuration not stated) -3.41% [at 75.8 µM]
Cn1c(=O)c(CCc2ccccc2)nc2cnc(N3CCNCC3)nc21 10.4%
Cc1ccccc1CN1[C@@H]2c3ccccc3C[C@@H]2OCCS1(=O)=O -5.44%
CC1(C)SC2C(NC(=O)COc3ccccc3)C(=O)N2C1C(=O)O (configuration not stated) 9.69%
C[C@@]12CCC(OC(=O)c3ccccc3)CC1CCc1ccccc12 (some centres not stated) -0.163%
COC(=O)[C@H](Cc1ccccc1)NC(=O)[C@@H](N)CC(=O)O (H-Asp-Phe-OMe)
O=C(NC[C@H]1CCCCN1)c1cc(OCC(F)(F)F)ccc1OCC(F)(F)F -3.95%
C=C1O[C@@](CO)(n2cnc3c(N)ncnc32)[C@H](O)[C@@H]1O 19.8% [at 201 µM]
CN(C)Cc1ccccc1-c1cc(-n2ccnc2)ncn1 8.23%
CN(C)Cc1ccccc1-c1cc(NCc2ccccc2)ncn1 14.6%
c1ccc(Nc2ncncc2-c2ccc3c(c2)OCO3)cc1 1.53%
COC(=O)[C@H]1[C@@H]2C[C@@H]3c4[nH]c5ccccc5c4CCN3C[C@H]2CC[C@H]1O 9.86%
COc1cc(-c2noc(C)c2C#Cc2ccc(N)cc2)cc(OC)c1OC -0.782%
Cc1cccc(CNc2ccnc(-c3cccc(NS(C)(=O)=O)c3)n2)c1 8.68%
NC1(C(=O)O)CCc2cc(P(=O)(O)O)ccc21 (configuration not stated) -1.16%
COC(=O)[C@@H]1CCCN1Cc1ccc2c(c1)CN(Cc1ccccc1C)CCO2 13%
Cc1ccccc1N=Nc1ccc(N=Nc2c(O)ccc3ccccc23)c(C)c1 9.54%
O=C(CCC1CCN(Cc2ccccc2)CC1)c1ccc2c(c1)NCCCC2 7.97%
O=C(O)c1c2ccccc2cc2ccccc12
CO/N=C(\C(=O)N[C@@H]1C(=O)N2C(C(=O)O)=C(COC(C)=O)CS[C@H]12)c1csc(N)n1 10.9% [at 75.8 µM]
CN(Cc1ccco1)c1nc(-c2ccccc2Cl)nc2ccccc12 5.28%
Cc1cnc(C)c(-c2cc(F)cc3c2OC(CNC(=O)c2cc(Cl)ccc2F)C3)n1 (configuration not stated) 6.78%
COc1cccc(CNC(=O)c2c(OC)cc(=O)n3c2CCN(C(=O)c2ccc(C)s2)CC3)c1 2.81%
Cc1ccccc1-c1cncnc1N(C)Cc1ccco1 17.8%
CCCCCCCCCCCCCCCCCCN(CCCCCCCCCCCCCCCCCC)c1ccc(C=O)cc1 6.65%
CN(C)c1ccc(-c2cncnc2NCc2ccccc2)cc1 27.5%
COc1ccc2c(c1)OC(C)CN(CC(=O)NCc1cn[nH]c1-c1ccc(F)cc1)C2 (configuration not stated) 11.8%
O=C(O)[C@@H]1[C@H]2C[C@H]3c4[nH]c5ccccc5c4CCN3C[C@@H]2CC[C@@H]1O 0.446% [at 75.8 µM]
C=CC1=C(C)C2=Cc3c(C=C)c(C)c4[n]3[Sn+2][n]3c(c(C)c(CCC(=O)O)c3=CC3=NC(=C4)C(C)=C3CCC(=O)O)=CC1=N2 -5.34%
CC(C)c1c(C(=O)NCc2ccccn2)cnn1-c1nccc(-c2ccccc2F)n1 3.43%
Cc1ccccc1-c1cnc(-c2ccncc2)nc1C1CCCN(Cc2ccccc2O)C1 (configuration not stated) -14.7%
O=C(NCc1nnc2n1CCN(Cc1cc3c(cc1Cl)OCO3)CC2)c1cccc(F)c1 -10.6%
COc1cc(CNC(=O)CCCC/C=C/C(C)C)ccc1O
O=C(NCCCN1CCOCC1)c1ccc(Cl)cc1 1.17%
O=C1CC[C@@H](O)CCN1CC[C@H](Sc1ccc(Br)cc1)c1ccccc1 9.09%
COc1ccc(SC[C@H](Cc2ccccc2)N2CC[C@@H](C(C)(C)C)CCC2=O)cc1 -4.55%
OC(C#CCN1CCCC1)(c1ccccc1)c1ccccc1 5.25%
O=C(NCCCN1CCCCCC1)[C@@H](c1ccccc1)C1CCCCC1 5.37%
Cc1ccccc1-c1nc(N(C)C)c2ccccc2n1 5.83%
C=CCn1c(=O)c2c(nc(-c3ccccc3)n2C)n(C)c1=O 6.56%
CCNc1ncc2nc(-c3ccc(F)cc3)c(=O)n(C)c2n1 -3.5%
Cc1cnc(CNc2ncnc3ccc(-c4ccc(N(C)C)cc4)cc23)cn1 -3.79%
COCCn1c(=O)c(-c2ccccc2)nc2cnc(OCc3ccccc3)nc21 -11%
O=C1c2ccccc2C(=O)c2c(O)c(O)cc(O)c21 -23.1%
COC1C=CC23c4cc5c(cc4CN(CC2O)C3C1)OCO5 (configuration not stated) 5.5%
CCCOC(=O)c1ccc(O)cc1
COCCn1c(=O)c(-c2cn(C)c3ccccc23)nc2cnc(Oc3cccc(Cl)c3)nc21 -1.76%
COc1cc2ccc(=O)oc2c(O)c1O
O=C(c1ccco1)N1CCC2(CC1)CN(Cc1cc(C(F)(F)F)cc(C(F)(F)F)c1)C2 -2.2%
COc1cc2c(C(=O)c3ccccc3)c3c4c(cc(OC)c(OC)c4c2cc1OC)CCN3C -2.41%
CC(CNC1CCCCC1)OC(=O)c1ccccc1 (configuration not stated) 22% [at 75.8 µM]
CC(C)C[C@@H](CO)N1CCN(C)CCC1=O 10.7%
O=C(O)c1cccc(-c2noc(-c3ccccc3F)n2)c1 1.57%
Nc1ccc(S(=O)(=O)Nc2nccs2)cc1
O=C1c2c(O)cccc2[C@H]([C@@H]2O[C@H](CO)[C@@H](O)[C@H](O)[C@H]2O)c2cc(CO)cc(O)c21 4.72%
Cc1ccccc1-c1nccc(-n2ccnc2)n1 22.8%
CCC(O)CNC(=O)c1cnn(-c2ncc3c(n2)-c2ccccc2CCC3)c1C1CC1 (configuration not stated) 7.89%
CN[C@H]1CC[C@@H](c2ccc(Cl)c(Cl)c2)c2ccccc21
CCOC(=O)C(Cc1ccc(O)cc1)NC(C)=O (configuration not stated) -0.54%
Cc1c(C(=O)NCC2CCCN(C)C2)cnn1-c1nccc(-c2ccco2)n1 (configuration not stated) 16.6%
COCC(=O)Nc1cc(C(=O)N2CCSCC2)cc2nc(-c3ccccc3)n(C)c12 16.7%
CC1(C)S[C@@H]2[C@H](NC(=O)C(C(=O)O)c3ccsc3)C(=O)N2[C@H]1C(=O)O (some centres not stated) 7.44%
CC1CC(=O)NN=C1c1ccc(NCC(C)(C)NCC(O)COc2cc(Cl)ccc2C#N)cc1 (configuration not stated) 21.3%
COCCNC(=O)COc1ccc(OCCNC[C@H](O)COc2ccccc2)cc1 22.7%
CCOC(=O)/C=C/c1ccc2c(c1)S(=O)(=O)N(c1cccc(OC)c1)[C@H]2CC(=O)OCC -4.02%
COc1ccc(O)c(CN2CCC3(CCC(CNC(=O)C4CCCO4)O3)CC2)c1 (configuration not stated) 18.3%
CC(C)NC(=O)N1CC[C@@]2(CCCN(C(=O)c3cccc(F)c3)C2)C1 0.159%
C[C@@H]1C[C@H]2C3C[C@H](F)C4=CC(=O)C=CC4(C)[C@@]3(F)[C@@H](O)CC2(C)[C@@]1(O)C(=O)COC(=O)C(C)(C)C (some centres not stated) 26.3%
Cc1ccc(CNc2ncnc3sc(C(=O)N4CCC(N5CCCC(O)C5)CC4)c(C)c23)o1 (configuration not stated) 4.22%
CCOC(=O)C1=C(C)NC(=S)NC1c1cccc(O)c1 (configuration not stated) -4.41%
COC(=O)[C@@H]1C[C@H](NC(=O)c2ccccn2)CN1Cc1cccc2ccccc12 1.11%
N#Cc1c(N(CC(=O)O)CC(=O)O)sc(C(=O)O)c1CC(=O)O 20.4%
CC[C@H]1OC(=O)[C@H](C)[C@@H](O[C@H]2C[C@@](C)(OC)[C@@H](O)[C@H](C)O2)[C@H](C)[C@@H](O[C@@H]2O[C@H](C)C[C@H](N(C)C)[C@H]2O)[C@](C)(O)C[C@@H](C)CN(C)[C@H](C)[C@@H](O)[C@]1(C)O 17%
COCCn1c(=O)c(-c2cn(C)c3ccccc23)nc2cnc(Oc3ccc(OC)cc3)nc21 19.4%
Cc1csc(SCC(=O)NCC2Cc3cc(-c4cncnc4)ccc3O2)n1 (configuration not stated) -11%
CS(=O)(=O)Nc1cccc(-c2cncnc2NCc2cccnc2)c1 4.46%
Clc1ccccc1-c1nccc(NCCN2CCOCC2)n1 4.59%
CCN(CC)CCC(=O)N1c2ccccc2Sc2ccc(Cl)cc21 5.09%
COc1ccc(-c2c(-c3ccc4c(c3)OCO4)noc2-c2ccsc2)cn1 16.7%
CCC(C)(C)N=C(NC#N)Nc1cccnc1 5.26%
COC(=O)C1CCCCN1Cc1ccc2c(c1)CN(C(=O)c1cc(C)nc3cc(F)ccc13)CCO2 (configuration not stated) 7.82%
